45 compounds from article PMC4336329 (PLoS ONE, 2015) can be followed below.

Out of some 310,000 compounds screened, about 14,000 (4.5%) showed an effect of 50% or more. Effects have a minus sign here. The list shows a part of the results.
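Also: peak tail current of the secondary pulse compared with the same well before compound.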

The target of the test is human ether-à-go-go-related gene (hERG) potassium channel (human, UniProt Q12809). Briefly: primary screen, population patch clamp on CHO cells stably expressing hERG.
Sequence of human ether-à-go-go-related gene (hERG) potassium channel (Q12809 whole entry, looked up): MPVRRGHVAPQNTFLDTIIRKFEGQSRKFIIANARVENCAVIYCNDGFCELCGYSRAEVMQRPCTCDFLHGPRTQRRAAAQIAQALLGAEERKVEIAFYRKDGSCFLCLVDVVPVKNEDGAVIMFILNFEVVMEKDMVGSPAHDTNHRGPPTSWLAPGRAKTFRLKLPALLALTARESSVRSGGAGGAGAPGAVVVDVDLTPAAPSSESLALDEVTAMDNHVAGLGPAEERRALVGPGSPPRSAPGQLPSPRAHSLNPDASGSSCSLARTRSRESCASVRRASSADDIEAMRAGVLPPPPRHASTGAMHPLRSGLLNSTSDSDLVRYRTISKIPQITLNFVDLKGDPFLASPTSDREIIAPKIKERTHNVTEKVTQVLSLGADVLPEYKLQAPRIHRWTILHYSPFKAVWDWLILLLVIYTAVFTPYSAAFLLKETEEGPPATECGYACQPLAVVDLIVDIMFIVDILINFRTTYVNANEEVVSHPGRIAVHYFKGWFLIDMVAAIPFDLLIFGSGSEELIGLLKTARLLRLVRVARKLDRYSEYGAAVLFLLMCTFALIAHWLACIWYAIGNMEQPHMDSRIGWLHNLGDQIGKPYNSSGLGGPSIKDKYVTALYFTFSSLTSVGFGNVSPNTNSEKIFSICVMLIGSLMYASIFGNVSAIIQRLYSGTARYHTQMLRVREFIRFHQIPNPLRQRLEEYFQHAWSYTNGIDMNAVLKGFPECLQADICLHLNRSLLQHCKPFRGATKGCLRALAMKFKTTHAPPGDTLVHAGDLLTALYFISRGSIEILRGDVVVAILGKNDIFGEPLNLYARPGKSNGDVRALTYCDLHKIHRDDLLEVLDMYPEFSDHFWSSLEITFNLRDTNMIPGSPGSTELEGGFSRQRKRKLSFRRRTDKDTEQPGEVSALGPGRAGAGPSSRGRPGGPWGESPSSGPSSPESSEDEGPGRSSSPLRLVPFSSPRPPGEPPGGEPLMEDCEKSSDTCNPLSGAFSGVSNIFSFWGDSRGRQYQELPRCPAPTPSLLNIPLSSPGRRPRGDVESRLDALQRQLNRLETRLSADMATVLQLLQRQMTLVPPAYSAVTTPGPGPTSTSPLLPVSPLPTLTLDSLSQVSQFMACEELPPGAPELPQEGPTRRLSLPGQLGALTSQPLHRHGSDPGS
For the compound `O=C(NCCc1ccccc1)c1nccc2ccccc12`, the “hERG current change (%, negative = inhibition) at 10uM” value stood at 0.978%.
Consider `O=C(Nc1ccc2[nH]ncc2c1)c1ccc(F)cc1`, for which the “hERG current change (%, negative = inhibition) at 10uM” value is 17%.
With `Cc1sc(NC(=O)C2=COCCO2)c(C(N)=O)c1C` the figure was 5.19%; with `CC(=O)Nc1cccc(C(=O)OC(C)C(=O)NC(=O)NC2CCCCC2)c1` (stereo not drawn), 3.89%; with `COc1ccccc1-c1ccc(SCC(=O)N2CCOCC2)nn1`, 0.449%.
The figure for `Cc1ccc(OCC(=O)NC2CCS(=O)(=O)C2)c(C)c1` (stereo not drawn) is 14.6%.
On to `CN1CCS/C1=C/C=C1/SC(=S)N(Cc2ccccc2)C1=O`, for which the “hERG current change (%, negative = inhibition) at 10uM” value worked out at 11.8%.
With `Cc1ccc(N(CC(=O)NN=C2CCN(C)CC2)S(=O)(=O)c2ccc(C)cc2)cc1` the figure was -29.3%.
On to `COc1ccc(S(=O)(=O)N(C)c2ccc(C(=O)NCc3ccco3)cc2)cc1OC`, for which the “hERG current change (%, negative = inhibition) at 10uM” value is given as -9.43%.
Regarding `Nc1ccccc1-c1nc2ccccc2s1`, the “hERG current change (%, negative = inhibition) at 10uM” value is reported as -8.03%.
The figure for `Cc1ccnc2nc(C(=O)Nc3nc4ccccc4s3)nn12` is -15.8%; for `Cc1c(NC(=O)C2CCCN2S(=O)(=O)c2cccc3nsnc23)cccc1C(=O)O` (stereo not drawn) it is 2.61%; for `CCC(=O)C1CCCN(C(=O)c2ccc3nc(-c4cccc(OC)c4)oc3c2)C1` (stereo not drawn) it is -49.6%.
For `COc1ccc(C2CC2/C(=N/O)c2ccccc2)cc1` (stereo not drawn), the “hERG current change (%, negative = inhibition) at 10uM” value was -6.52%.
For the compound `CC(=O)Nc1ccc(/C=N/NC(=O)c2cc(-c3ccco3)nc3ccccc23)cc1`, the “hERG current change (%, negative = inhibition) at 10uM” value was determined as 2.09%.
With `Cc1cc(OCC(=O)O/N=C(\N)c2ccccc2)cc(C)c1Cl`, the “hERG current change (%, negative = inhibition) at 10uM” value is recorded as -1.68%.
As to `O=C(c1ccccc1)C1CCN(C(=O)c2ccco2)CC1`, the “hERG current change (%, negative = inhibition) at 10uM” value is 0.566%.
Turning to `COc1ccc(/C=C2\SC(=S)N(N3CCOCC3)C2=O)c(OC)c1`, the “hERG current change (%, negative = inhibition) at 10uM” value stood at 13.1%.
As for `COc1ccc(/C=C2\SC(=O)N(CC(=O)Nc3cccc(C)c3)C2=O)cc1O`, the “hERG current change (%, negative = inhibition) at 10uM” value is listed as 2.9%.
On to `COc1ccc(OCCSc2nc3ccccc3n2CCC(=O)O)cc1`, for which the “hERG current change (%, negative = inhibition) at 10uM” value was determined as 10.9%.
With `OCC[C@H]1C[C@H](O)[C@@H](O)[C@@]2(Cc3ccccc3CO2)O1`, the “hERG current change (%, negative = inhibition) at 10uM” value is given as 12.7%.
On to `Cl.O=C(CCN1CCc2ccccc21)c1ccc2c(c1)OCCO2`, for which the “hERG current change (%, negative = inhibition) at 10uM” value was 9.22%.
As for `CC1=NN(C(C#N)c2ccccc2C)C(c2ccccc2)C1` (stereo not drawn), the “hERG current change (%, negative = inhibition) at 10uM” value was determined as 8.21%.
As for `COc1ccccc1N1CCN(C(=O)c2ccc3[nH]c4c(c3c2)CCCC4)CC1`, the “hERG current change (%, negative = inhibition) at 10uM” value came out at 10.5%.
Take `Cc1nn(C)cc1/C=N/NC(=O)c1sc2ccccc2c1Cl`: the “hERG current change (%, negative = inhibition) at 10uM” value was -6.47%.
In the case of `COc1ccccc1/C=N/Nc1cc(N(C)C)nc(N(C)C)n1`, the “hERG current change (%, negative = inhibition) at 10uM” value is -35.9%.
For `CCCCCn1c(C)c2c(OCC)cccc(=O)c2c1C`, the “hERG current change (%, negative = inhibition) at 10uM” value is given as -69%.
On to `Cc1nn(C)c(Oc2ccccc2)c1CCNS(=O)(=O)c1ccc(F)cc1`, for which the “hERG current change (%, negative = inhibition) at 10uM” value is on record as 3.58%.
In the case of `CCCCC(CC)COC(=O)c1ccc(N(C)C)cc1` (stereo not drawn), the “hERG current change (%, negative = inhibition) at 10uM” value was determined as 3.95%.
Consider `Cc1ccccc1C(O)(Cc1ccccc1)C1CN2CCC1CC2.Cl` (stereo not drawn), for which the “hERG current change (%, negative = inhibition) at 10uM” value was -55.2%.
As to `COc1ccc(C(=O)NC2CCCc3ccccc32)cc1[N+](=O)[O-]` (stereo not drawn), the “hERG current change (%, negative = inhibition) at 10uM” value is -42%.
Take `COc1ccc(-n2c(SCC(=O)Nc3nccs3)nnc2-c2ccccc2)cc1`: the “hERG current change (%, negative = inhibition) at 10uM” value is reported as -62.5%.
Take `CN(C)/C=C/C(=O)c1cc(N2CCOCC2)ccc1[N+](=O)[O-]`: the “hERG current change (%, negative = inhibition) at 10uM” value is reported as 6.97%.
On to `CCCC(=O)Nc1nnc(CC(=O)N2CCCC2)s1`, for which the “hERG current change (%, negative = inhibition) at 10uM” value worked out at 7.72%.
With `CCn1nnnc1SCC(=O)NCc1cccs1`, the “hERG current change (%, negative = inhibition) at 10uM” value was found to be 9.02%.
As to `CC(C)CNS(=O)(=O)c1ccc(CCC(=O)NC2CCCC2)cc1`, the “hERG current change (%, negative = inhibition) at 10uM” value is listed as 11.8%.
Regarding `CCOc1cc(C(=O)O/N=C(\N)c2ccc([N+](=O)[O-])cc2)cc(OCC)c1OCC`, the “hERG current change (%, negative = inhibition) at 10uM” value is given as -16%.
On to `COc1ccc(Nc2nc(N)nc(CN3CCOCC3)n2)cc1`, for which the “hERG current change (%, negative = inhibition) at 10uM” value is reported as -5.46%.
On to `CCCCCC(=O)OCCc1c(C)nc2nc[nH]n2c1=O`, for which the “hERG current change (%, negative = inhibition) at 10uM” value is 7.43%.
Turning to `CCN1CCN(c2cc(C)c3cc(NC(=S)NCCN(C)C)ccc3n2)CC1`, the “hERG current change (%, negative = inhibition) at 10uM” value is listed as 3.21%.
Take `Cc1ccc(-n2cc(-c3ccccc3)c3c(=O)[nH]cnc32)cc1`: the “hERG current change (%, negative = inhibition) at 10uM” value is given as 8.89%.
On to `CC(C)(C)NC(=O)c1ccc(NC(=O)c2ccccc2-c2ccccc2C(=O)O)cc1`, for which the “hERG current change (%, negative = inhibition) at 10uM” value came to 25.2%.
Turning to `Cc1cc(C)c(C(=O)N(C)CC2CCCN(CCc3ccccc3F)C2)o1` (stereo not drawn), the “hERG current change (%, negative = inhibition) at 10uM” value was -70.4%.
Turning to `COc1ccccc1CCC(=O)NC1CCCN(c2ccc(C(F)(F)F)cn2)C1` (stereo not drawn), the “hERG current change (%, negative = inhibition) at 10uM” value came to 12.6%.
`CC(C(=O)Nc1ccccc1)N(C)CCOc1ccc(Br)cc1` (stereo not drawn): the “hERG current change (%, negative = inhibition) at 10uM” value is -33.4%.
